# Source: PubChem BioAssay AID2546 (National Center for Advancing Translational Sciences (NCATS), 2010)
# Screen size: about 310,000 compounds; about 11,000 (3.5%) were called active. The shares of active, inactive and inconclusive entries below differ from those in the screen. Calls come from the whole dose curve; as a rule, active = well fitted inhibition curve with a large enough effect; inconclusive = small, poorly fitted or top-dose-only effect, or effect the other way; inactive = flat fitted curve, though single readings scatter. No potency is given beside an inconclusive call; the fits are too rough.
# Assay: VP16 counterscreen qHTS for inhibitors of ROR gamma transcriptional activity;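 note: Gal4-VP16 expression switched on by copper sulfate through the metallothionein promoter; nearly all actives have a fitted effect of over 50% in size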
# Conditions: Drosophila S2 Gal4-VP16 UAS-luciferase, luminescence, 20 h; series mostly up to 53.6 µM
# Potency is the fitted concentration of half-maximal effect; tags give direction and shape of the fitted curve.
row,Compound,Potency
1,CNc1c(NS(=O)(=O)c2cc(Cl)ccc2OC)c(=O)oc2ccccc12,inactive
2,COc1ccc(N2CCN(C(=O)c3ccc(N(C)S(=O)(=O)c4ccc(C)cc4)cc3)CC2)cc1,"inconclusive [inhibitor, single point]"
3,CS(=O)(=O)Nc1cccc(-c2nc(N3CCNCC3)c3ccccc3n2)c1,inactive
4,COc1cc(NC(=O)c2sc3nc(C)nc(N4CCOCC4)c3c2C)cc(OC)c1OC,"inconclusive [activator, single point]"
5,COc1ccc2cc3cc(C(=O)NC4CC4)sc3nc2c1,"inconclusive [inhibitor, single point]"
6,COc1ccc(N(C(=O)Cc2cccs2)C(C(=O)NC2CCCCC2)c2cccn2C)cc1 (stereo not given),"inconclusive [inhibitor, partial curve]"
7,Cc1ccc(NC(=O)C2CCN(S(=O)(=O)c3c(C)noc3C)CC2)cc1C,"inconclusive [inhibitor, partial curve, poor fit]"
8,Cc1ccccc1OCC(=O)N/N=C/c1cn(Cc2ccccc2)c2ccccc12,"inconclusive [inhibitor, single point]"
9,Cc1ccc(OCC(=O)OCC(=O)Nc2sccc2C(N)=O)cc1C,"inconclusive [inhibitor, single point]"
10,O=C(O)c1cnn(-c2nc(-c3ccc(Cl)cc3)cs2)c1C(F)(F)F,"inconclusive [inhibitor, full curve, poor fit]"
11,O=C(N/N=C/c1cc([N+](=O)[O-])ccc1O)C(O)(c1ccccc1)c1ccccc1,active: 0.891 µM
12,Cc1ccc(OCC(=O)Nc2cccc(C)n2)c(C)c1,"inconclusive [inhibitor, single point]"
13,COc1cc(/C=C(\C#N)c2nc3c(s2)CCCC3)ccc1O,"inconclusive [inhibitor, partial curve]"
14,O=C1/C(=C/c2cccnc2)Oc2cc(OS(=O)(=O)c3ccccc3)ccc21,"inconclusive [inhibitor, single point]"
15,Cc1c(Cl)cccc1NC(=S)N/N=C/c1ccccc1Cl,active: 4.47 µM
16,Cc1ccc(C(=O)CC(=O)c2ccccc2C)c(O)c1,active: 5.62 µM
17,COc1ccc(S(=O)(=O)Nc2cc(SCC(=O)O)c(O)c3ccccc23)cc1,inactive
18,COc1ccc(CNC(=O)C2CCC(CNc3nc(=S)[nH]c4ccccc34)CC2)cc1 (stereo not given),"inconclusive [inhibitor, single point]"
19,O=C1CCS/C(=N\N=C\c2ccc(Cl)cc2Cl)N1,"inconclusive [activator, single point]"
20,CC(=O)c1ccc(OCc2cc(C(=O)N3CCC(c4ccncc4)CC3)no2)cc1,"inconclusive [inhibitor, single point]"
21,Cn1c(-c2ccccc2)c(C(=O)CCl)c2ccccc21,"inconclusive [inhibitor, single point]"
22,Cc1cc(N)n2nc(-c3ccccc3)cc2n1,"inconclusive [inhibitor, single point]"
23,COc1ccc(C(=O)N2CCC(C(=O)Nc3ccc(OC)c(OC)c3)CC2)cc1,inactive

row,Compound,Potency
1,O=C(N/N=C/c1ccc(Cl)s1)C(O)c1ccccc1 (stereo not given),"inconclusive [inhibitor, single point]"
2,O=C(CN1C(=O)S/C(=C\C=C\c2ccccc2)C1=O)Nc1cccc(O)c1,"inconclusive [inhibitor, partial curve]"
3,CCN(CC)S(=O)(=O)c1cccc(N=Nc2c(O)c3ccccc3oc2=O)c1,inactive
4,COc1ccc(C(=O)Nc2cc(C(C)=O)c(C)oc2=O)cc1,"inconclusive [inhibitor, single point]"
5,CCOC(=O)N1CCN(c2nc(C(F)(F)F)nc3c(C)cc(C)cc23)CC1,active: 20 µM
6,O=C(Nc1ccc(N2CCOCC2)c(Cl)c1)c1c(F)c(F)c(F)c(F)c1F,"inconclusive [inhibitor, single point]"
7,Cc1ccc(C(=O)c2cc(C)sc2NC(=O)CN2CCN(C(=O)c3ccco3)CC2)cc1,"inconclusive [inhibitor, single point]"
8,COc1ccc(-n2c(COc3ccccc3)n[nH]c2=S)cc1,inactive
9,CCOC(=O)C1CCCN(C(=O)Cn2nc(C)n3c(cc4c(OC)cccc43)c2=O)C1 (stereo not given),inactive
10,O=C(CSCc1ccccc1Br)N/N=C/c1ccc2c(c1)OCO2,"inconclusive [inhibitor, single point]"
11,CC(C)Sc1nc2c(c(=O)n(C)c(=O)n2C)n1C,inactive
12,CC(Oc1ccc(Cl)cc1)C(=O)N/N=C/c1ccsc1 (stereo not given),"inconclusive [inhibitor, single point]"
13,Cc1c(Cl)cccc1-c1ccc(CNCc2ccccn2)o1,"inconclusive [inhibitor, single point]"
14,CN(Cc1ccco1)c1ccnc(-c2cccc(C#N)c2)n1,"inconclusive [activator, single point]"
15,CC(=O)n1c2ccccc2c2ccccc21,inactive
16,O=C(Oc1ccccc1)N1CCC2(CCCN(c3ccccc3)C2)CC1,inactive
17,Cc1cc(=S)[nH]c2c(C)cccc12,"inconclusive [inhibitor, partial curve]"
18,O=C(Cc1cccc2ccccc12)N/N=C/c1ccc2cccc(O)c2n1,"inconclusive [inhibitor, single point]"
19,COC(=O)CN1C(=O)N/C(=C/c2ccc(C)o2)C1=O,"inconclusive [inhibitor, single point]"
20,CCOC(=O)C1CCCN(S(=O)(=O)c2cc(C(=O)OC)n(C)c2)C1 (stereo not given),active: 15.8 µM
21,O=C(N/N=C/c1c(F)cccc1Cl)c1cc(C2CC2)[nH]n1,"inconclusive [inhibitor, single point]"
22,Cc1ccc(NC(=O)C(C)c2ccc(-c3ccccc3)c(F)c2)cc1 (stereo not given),"inconclusive [inhibitor, single point]"
